Results: PubChem BioAssay
The inconclusive results got no clear call from the source; some entries with a clear call stand among them for comparison. Calls of active or inactive are those of the source.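 Rule for the calls: active = viability at or below 27.92% in each of two runs, the all-compound median minus 4 SD; inconclusive = no clear call, values can overlap the other calls; inactive = the rest.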

Test: viability of PTEN-null HCT116 cells – cell-based, HCT116 clonal line, CellTiter-Glo, pilot screen (AID 824);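 note: 0% = 20 µM Hyamine control and 100% = vehicle cell control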
Conditions: HCT116 PTEN-deleted viability, 60 h, at 10 µM, active compounds read low

Structure (SMILES) | viability
Cc1ccc(SCC(=O)NCCN2C(=O)CSC2=O)c(C)c1 | inconclusive: 110%
O=C(CN1C(=O)c2cccc3cccc1c23)N1CCN(c2ccc(F)cc2)CC1 | inconclusive: 93.5%
COc1ccc(Nc2ncnc3c2cnn3Cc2ccccc2)cc1 | inconclusive: 87.2%
NC(=O)C1CCN(C(=O)CCCCCn2c(=O)[nH]c3ccsc3c2=O)CC1 | inconclusive: 89.4%
Cc1ccc(C)c(NC(=O)CSc2nnc(-c3ccncc3)n2N)c1 | inconclusive: 92.4%
CCN(CC)S(=O)(=O)c1cc(Br)ccc1OC | inconclusive: 81.8%
O=C(CSc1oc(-c2ccc(F)cc2)nc1S(=O)(=O)c1ccccc1)NCC1CCCO1 (centres undefined) | inconclusive: 90.3%
CCOc1ccc(N(CC(=O)Nc2ccc(C)c(C)c2)S(=O)(=O)c2c(C)noc2C)cc1 | inconclusive: 28.8%
COc1ccc(N2CCN(C(=O)Cn3c(=O)[nH]c4ccsc4c3=O)CC2)cc1 | inconclusive: 101%
Cc1ccc(C)c(NC(=O)C2CCC(C)(C(=O)O)C2(C)C)c1 (centres undefined) | inactive: 99%
COc1ccccc1NC1=NCC(=O)N1Cc1ccccc1 | inconclusive: 97%
CN(C(=O)c1ccc(NC(=O)c2cnccn2)cc1)C1CCCCC1 | inconclusive: 92.7%
CCOC(=O)c1ccc(NCn2c(=O)oc3ccccc32)cc1 | inactive: 87.6%
CCC(=O)NC(C)c1nc2ccccc2n1C (centres undefined) | inconclusive: 103%
COc1ccc(-c2nnc(NC(=O)c3ccccc3C)o2)cc1 | active: 25.3%
O=C1c2ccccc2C(=O)N1CCCC(=O)N1CCc2ccccc21 | inconclusive: 98.7%
CCCc1nc2n[nH]c(N)c2c2c1CCC2 | inconclusive: 92.5%
Cc1nc2ccc(Br)cn2c1NC(C)(C)C | inconclusive: 77.6%
CSc1nc(SCC(=O)NCc2ccco2)c2c3c(sc2n1)COC(C)(C)C3 | inconclusive: 30.4%
CCOC(=O)N1CCC(NC(=O)C(NC(=O)C2CCCCC2)C(C)C)CC1 (centres undefined) | inconclusive: 92.6%

Structure (SMILES) | viability
COC(=O)c1cn(NC(=O)c2ccncc2)c(=O)c2ccccc12 | inactive: 94.9%
CCn1cc(C(=O)NC2CCCCCC2)c2cc(OC)c(OC)cc2c1=O | inconclusive: 76.9%
O=C(C1=C(O)C(=O)N(CCc2ccccc2)C1c1cccnc1)c1ccco1 (centres undefined) | inconclusive: 103%
Cc1c(Cl)cccc1NC(=O)CCN1CCCC(C)C1 (centres undefined) | inconclusive: 89.8%
COc1ccc(NC(=O)C(c2ccc(OC)cc2)N(C)C(=O)c2cnccn2)cc1 (centres undefined) | inconclusive: 92%
COc1ccc(NC(=O)C2CCC(C)(C(=O)O)C2(C)C)cc1 (centres undefined) | inconclusive: 94.2%
Cc1c(C(=O)NC2CC2)oc2ccc(S(=O)(=O)N3CCCCCC3)cc12 | inactive: 90.8%
Nn1c(Cc2ccccc2F)nnc1SCC(=O)N1CC(=O)Nc2ccccc21 | inconclusive: 106%
CN1CCN(c2nc3c(c(=O)[nH]c(=O)n3C)n2CCSc2nc3ccccc3s2)CC1 | inactive: 91.9%
CCOc1ccc(NC2c3ccccc3C(=O)N2c2ccc(Cl)cn2)cc1 (centres undefined) | inactive: 94.6%
CCN(CC)C(=O)CSc1nnc(-c2ccccc2)n1N | inconclusive: 94.1%
NC(=O)C1CCN(c2nc(C3CC3)nc3c2nnn3Cc2ccccc2Cl)CC1 | inconclusive: 86.1%
COc1ccc(C)cc1NC(=O)CSc1nnc(-c2ccc(C)cc2)o1 | inactive: 86.8%
COc1ccc(-c2cc3ccccc3n2CC(O)CN2CCOCC2)cc1 (centres undefined) | inconclusive: 88.2%
CC1CCN(C(=O)CSc2nc(N)c3c4c(sc3n2)CN(C)CC4)CC1 | inconclusive: 96.2%
CC(C)c1nc2sc3c(SCC(=O)NCc4ccco4)ncnc3c2c2c1CCC2 | inconclusive: 94%
CCOC(=O)N1CCN(C(=O)CSc2nnc(-c3cccs3)o2)CC1 | inactive: 108%
NC1=C(c2ccc(F)cc2)C(=O)CS1 | inconclusive: 87.7%
CCOc1ccc(NC(=O)CSc2nccn2C)cc1 | inconclusive: 103%
